The values that follow come from the GPR68 mutational scans of Howard et al. (2025).

Scores with a large standard error are left out. Not listed are two conditions whose scores span a narrow range. Read del as a deletion of the residues named and ins as an insertion between two positions. For part of these data: The data file names ogerin without a concentration.

The labels stand for the following.
B1: GPR68, Q15743 (parent)
chain: MGNITADNSSMSCTIDHTIHQTLAPVVYVTVLVVGFPANCLSLYFGYLQIKARNELGVYLCNLTVADLFYICSLPFWLQYVLQHDNWSHGDLSCQVCGILLYENIYISVGFLCCISVDRYLAVAHPFRFHQFRTLKAAVGVSVVIWAKELLTSIYFLMHEEVIEDENQHRVCFEHYPIQAWQRAINYYRFLVGFLFPICLLLASYQGILRAVRRSHGTQKSRKDQIQRLVLSTVVIFLACFLPYHVLLLVRSVWEASCDFAKGVFNAYHFSLLLTSFNCVADPVLYCFVSETTHRDLARLRGACLAFLTCSRTGRAREAYPLGAPEASGKSGAQGEEPELLTKLHPAFQTPNSPGSGGFPTGRLA

Data set [1] covers variants of B1. As to the kind of experiment: cAMP reporter score (Enrich2 score, wild type = 0); higher = more signal; HEK293T, FACS bins.
Variants of B1 are the subject of data set [2]. As to the kind of experiment: surface expression score (Enrich2 score, wild type = 0); higher = more signal; HEK293T, FACS bins.

As for MGNITADNSSMSCTIDHTIHQTLAPVVYVTVLVVGFPANCLSLYFGYLQIKARNELGVYLCNLTVADLFYICSLPFWLQYVLQHDNWSHGDLSCQVCGILLYENIYISVGFLCCISVDRYLAVAHPFRFHQFRTLKAAVGVSVVIWAKELLTSIYFLMHEEVIEDENQHRVCFEHYPIQAWQRAINYYRFLVGFLFPICLLLASYQGILRAVRRSHGTQKSRKDQIQRLVLSTVVIFLACFLPYHVLLLVRSVWEASCDFAKGVFNAYHFSLLLTSFNCVADPVLYCFVSETTHRDIARLRGACLAFLTCSRTGRAREAYPLGAPEASGKSGAQGEEPELLTKLHPAFQTPNSPGSGGFPTGRLA [L297I], the cAMP reporter score in data set [1] (pH 5.5) was -0.402; in data set [1] (pH 6), 0.549; in data set [1] (pH 6, modulator: ogerin), -0.141. Moreover, in data set [2], the surface expression score was -0.683.
MGNITADNSSMSCTIDHTIHQTLAPVVYVTVLVVGFPANCLSLYFGYLQIKARNELGVYLCNLTVADLFYICSLPFWLQYVLQHDNWSHGDLSCQVCGILLYENIYISVGFLCCISVDRYLAVAHPFRFHQFRTLKAAVGVSVVIWAKELLTSIYFLMHEEVIEDENQHRVCFEHYPIQAWQRAINYYRFLVGFLFPICLLLASYQGILRAVRRSHGTQKSRKDQIQRLVLSTVVIFLACFLPYHVLLLVRSVWEASCDFAKGVFNAYHFSLLLTSFNCVADPVLYCFVSETTHRDFARLRGACLAFLTCSRTGRAREAYPLGAPEASGKSGAQGEEPELLTKLHPAFQTPNSPGSGGFPTGRLA [L297F]: the cAMP reporter score in data set [1] (pH 5.5) is -0.233; in data set [1] (pH 6) it was -0.43; in data set [1] (pH 6, modulator: ogerin), -0.194; in data set [1] (pH 6.5, modulator: ogerin), -0.186. Further, in data set [2], the surface expression score was 0.234.
As to MGNITADNSSMSCTIDHTIHQTLAPVVYVTVLVVGFPANCLSLYFGYLQIKARNELGVYLCNLTVADLFYICSLPFWLQYVLQHDNWSHGDLSCQVCGILLYENIYISVGFLCCISVDRYLAVAHPFRFHQFRTLKAAVGVSVVIWAKELLTSIYFLMHEEVIEDENQHRVCFEHYPIQAWQRAINYYRFLVGFLFPICLLLASYQGILRAVRRSHGTQKSRKDQIQRLVLSTVVIFLACFLPYHVLLLVRSVWEASCDFAKGVFNAYHFSLLLTSFNCVADPVLYCFVSETTHRDHARLRGACLAFLTCSRTGRAREAYPLGAPEASGKSGAQGEEPELLTKLHPAFQTPNSPGSGGFPTGRLA [L297H], the cAMP reporter score in data set [1] (pH 5.5) is -1.08; in data set [1] (pH 6) it was -0.454; in data set [1] (pH 6, modulator: ogerin), -1.86; in data set [1] (pH 6.5, modulator: ogerin), -1.23. Also, the surface expression score in data set [2] was -0.309.
On to MGNITADNSSMSCTIDHTIHQTLAPVVYVTVLVVGFPANCLSLYFGYLQIKARNELGVYLCNLTVADLFYICSLPFWLQYVLQHDNWSHGDLSCQVCGILLYENIYISVGFLCCISVDRYLAVAHPFRFHQFRTLKAAVGVSVVIWAKELLTSIYFLMHEEVIEDENQHRVCFEHYPIQAWQRAINYYRFLVGFLFPICLLLASYQGILRAVRRSHGTQKSRKDQIQRLVLSTVVIFLACFLPYHVLLLVRSVWEASCDFAKGVFNAYHFSLLLTSFNCVADPVLYCFVSETTHRDGARLRGACLAFLTCSRTGRAREAYPLGAPEASGKSGAQGEEPELLTKLHPAFQTPNSPGSGGFPTGRLA [L297G], for which the cAMP reporter score is 1.01 in data set [1] (pH 5.5); 0.607 in data set [1] (pH 6, modulator: ogerin); -0.606 in data set [1] (pH 6.5, modulator: ogerin). The surface expression score in data set [2] came to 0.435.
